Results on 44 compounds are retold here after article PMC4336329 (PLoS ONE, 2015).

In all, about 310,000 compounds went through this assay and about 14,000 (4.5%) showed an effect of 50% or more. The effect is printed as a negative number. Some of the results follow.
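Note: peak tail current of the secondary pulse compared with the same well before compound.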

Sequence of human ether-à-go-go-related gene (hERG) potassium channel (Q12809 whole entry, looked up): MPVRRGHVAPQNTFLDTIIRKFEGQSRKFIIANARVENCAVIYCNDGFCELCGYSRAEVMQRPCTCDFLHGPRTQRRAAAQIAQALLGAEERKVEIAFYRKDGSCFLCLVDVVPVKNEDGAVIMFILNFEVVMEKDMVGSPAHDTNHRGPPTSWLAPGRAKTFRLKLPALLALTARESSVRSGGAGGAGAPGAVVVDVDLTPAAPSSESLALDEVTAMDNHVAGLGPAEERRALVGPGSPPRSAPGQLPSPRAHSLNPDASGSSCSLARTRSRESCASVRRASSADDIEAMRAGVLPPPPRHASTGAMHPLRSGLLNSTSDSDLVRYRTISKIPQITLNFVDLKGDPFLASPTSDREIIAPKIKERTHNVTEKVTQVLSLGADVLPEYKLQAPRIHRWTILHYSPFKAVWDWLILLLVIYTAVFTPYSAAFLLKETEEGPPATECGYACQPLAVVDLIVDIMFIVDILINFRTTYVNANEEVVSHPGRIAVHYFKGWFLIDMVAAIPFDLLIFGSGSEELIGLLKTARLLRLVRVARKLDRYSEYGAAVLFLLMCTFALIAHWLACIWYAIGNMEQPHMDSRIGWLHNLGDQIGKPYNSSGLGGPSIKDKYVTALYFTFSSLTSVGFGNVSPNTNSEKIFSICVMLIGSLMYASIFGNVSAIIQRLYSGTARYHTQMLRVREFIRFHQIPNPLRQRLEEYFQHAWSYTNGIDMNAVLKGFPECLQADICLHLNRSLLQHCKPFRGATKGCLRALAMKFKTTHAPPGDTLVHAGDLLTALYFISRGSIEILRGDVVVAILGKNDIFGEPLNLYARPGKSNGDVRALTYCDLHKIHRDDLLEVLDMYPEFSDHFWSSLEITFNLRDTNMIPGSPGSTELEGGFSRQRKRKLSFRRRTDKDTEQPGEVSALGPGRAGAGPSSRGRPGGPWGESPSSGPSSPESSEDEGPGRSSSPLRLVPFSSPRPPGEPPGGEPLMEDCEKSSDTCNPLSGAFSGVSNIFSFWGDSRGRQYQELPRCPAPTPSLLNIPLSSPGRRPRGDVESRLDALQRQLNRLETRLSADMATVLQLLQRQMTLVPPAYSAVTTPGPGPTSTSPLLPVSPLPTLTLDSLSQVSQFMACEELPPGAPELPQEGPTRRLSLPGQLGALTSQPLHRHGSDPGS

The assay addresses human ether-à-go-go-related gene (hERG) potassium channel (human, UniProt Q12809). Nature of the assay: primary screen, population patch clamp on CHO cells stably expressing hERG.
Consider `Cc1ncc([N+](=O)[O-])n1CCOC(=O)Nc1ccc(Cl)c(Cl)c1`, for which the “hERG current change (%, negative = inhibition) at 10uM” value was determined as 1.07%.

Take `CCCCn1nc2cc(C(=O)NC3CCCc4ccccc43)ccc2c1OCC` (centres unmarked): the “hERG current change (%, negative = inhibition) at 10uM” value was -15.1%.

Consider `CC(=O)N1C(C(=O)O)CSC1c1cccc(C)c1` (centres unmarked), for which the “hERG current change (%, negative = inhibition) at 10uM” value is reported as 23%.

For the compound `CCCc1nnc(SCC(=O)NC2CC2)n1CC`, the “hERG current change (%, negative = inhibition) at 10uM” value was 15.1%.

On to `CCOC(=O)C1=C(C)N=c2s/c(=C\C(=O)OC)c(=O)n2C1c1ccc(OC)cc1` (centres unmarked), for which the “hERG current change (%, negative = inhibition) at 10uM” value was -1.94%.

With `CN(C(=O)c1ccc(COc2ccccc2Cl)o1)c1ccccc1`, the “hERG current change (%, negative = inhibition) at 10uM” value is -10.8%.

As to `COc1ccc(NC(=O)CSc2nnc(C3CC3)n2C)cc1`, the “hERG current change (%, negative = inhibition) at 10uM” value turned out to be 23.7%.

In the case of `O=C(Cn1nnc(-c2ccccc2)n1)c1ccccc1`, the “hERG current change (%, negative = inhibition) at 10uM” value was found to be 7.22%.

For the compound `Nc1ccccc1C(=O)N1CCc2ccccc21`, the “hERG current change (%, negative = inhibition) at 10uM” value was determined as 9.65%.

In the case of `O=C(O)C1Nc2c(Cl)cc(Cl)c(Cl)c2C2C=CCC12` (centres unmarked), the “hERG current change (%, negative = inhibition) at 10uM” value was found to be 17.2%.

In the case of `Cc1ccc(OCCOC(=O)CN2C(=O)NC3(CCCC3)C2=O)cc1`, the “hERG current change (%, negative = inhibition) at 10uM” value was -2.01%.

For `CN(C)c1ccc(/C=C(\NC(=O)c2ccccc2)C(=O)NCCN2CCOCC2)cc1`, the “hERG current change (%, negative = inhibition) at 10uM” value is -19.9%.

As to `COc1ccc(C(=O)C/C(=C\C(=O)c2ccc(C)cc2)c2ccccc2)cc1`, the “hERG current change (%, negative = inhibition) at 10uM” value is on record as 9.82%.

Take `CN1CCN(S(=O)(=O)c2ccc(NC(=O)C3CCCCC3)cc2)CC1`: the “hERG current change (%, negative = inhibition) at 10uM” value is recorded as -11%.

Regarding `NC(=O)CC(NC(=O)c1ccc(Br)cc1)c1ccc(N2CCC(Cc3ccccc3)CC2)c([N+](=O)[O-])c1` (centres unmarked), the “hERG current change (%, negative = inhibition) at 10uM” value is -12.8%.

With `COc1ccc(S(=O)(=O)NCCc2c[nH]c3ccc(Cl)cc23)cc1`, the “hERG current change (%, negative = inhibition) at 10uM” value is on record as 14.5%.

Regarding `CCC(=O)N1N=C(c2ccc(NS(C)(=O)=O)cc2)CC1c1ccc(C)cc1` (centres unmarked), the “hERG current change (%, negative = inhibition) at 10uM” value was -44.7%.

In the case of `COc1ccc(NC(=S)NCCc2c(C)[nH]c3ccc(OC)cc23)cc1`, the “hERG current change (%, negative = inhibition) at 10uM” value was 10.1%.

For `CCOC(=O)c1ccc(NC(=O)c2ccco2)cc1`, the “hERG current change (%, negative = inhibition) at 10uM” value turned out to be 4.69%.

As for `Cc1ccc(C(=O)N2CCN(c3ccccc3F)CC2)cc1NC1=NC2CS(=O)(=O)CC2S1` (centres unmarked), the “hERG current change (%, negative = inhibition) at 10uM” value stood at 20%.

For `O=C(CSc1nc2ccccc2c(=O)n1CCCN1CCOCC1)Nc1cccc(S(=O)(=O)N2CCCCCC2)c1`, the “hERG current change (%, negative = inhibition) at 10uM” value was -72.2%.

Regarding `O=C(/C=C/c1ccccc1O)c1ccco1`, the “hERG current change (%, negative = inhibition) at 10uM” value is -6.37%.

Turning to `Cc1nn(-c2cccc(Cl)c2)nc1C(=O)Nc1cccc(C(=O)NC2CC2)c1`, the “hERG current change (%, negative = inhibition) at 10uM” value is -9.59%.

Regarding `O=C(C1COc2ccccc2O1)N1CCCC1` (centres unmarked), the “hERG current change (%, negative = inhibition) at 10uM” value came to 16.8%.

For `O=[N+]([O-])/C(Cl)=C1\NCCN1Cc1ccc(Cl)nc1`, the “hERG current change (%, negative = inhibition) at 10uM” value is recorded as 16.8%.

Consider `O=C(NCCC(=O)N1CCC2(CC1)NCCc1[nH]cnc12)c1ccc(F)c(F)c1`, for which the “hERG current change (%, negative = inhibition) at 10uM” value was found to be 7.12%.

With `CCCn1c(N)c(N(CCOC)C(=O)Cc2ccc(S(=O)(=O)N3CCOCC3)s2)c(=O)[nH]c1=O`, the “hERG current change (%, negative = inhibition) at 10uM” value is listed as 16.9%.

Turning to `CC[C@@H](CO)NC(=O)[C@@H]1C=C2c3cccc4c3c(cn4C)C[C@H]2N(C)C1.O=C(O)/C=C\C(=O)O`, the “hERG current change (%, negative = inhibition) at 10uM” value turned out to be 13.3%.

On to `O=C(NNc1c2ccccc2nc2ccccc12)c1ccc(O)cc1`, for which the “hERG current change (%, negative = inhibition) at 10uM” value came to 8.09%.

In the case of `COc1ccc(/C=C/C(=O)NCCc2nc3ccccc3[nH]2)cc1`, the “hERG current change (%, negative = inhibition) at 10uM” value amounted to 26.4%.

Take `Clc1ccc(C2=CSC3=Nc4cccc5cccc(c45)N23)cc1`: the “hERG current change (%, negative = inhibition) at 10uM” value is listed as 4.54%.

As for `COC(=O)/C=C/c1ccc2c(c1)OCO2`, the “hERG current change (%, negative = inhibition) at 10uM” value was 13.5%.

On to `Cc1cc(=O)n2[nH]c(SCc3c(F)cccc3Cl)nc2n1`, for which the “hERG current change (%, negative = inhibition) at 10uM” value was determined as 6.2%.

Consider `CCOC(=O)c1cc(CC)sc1NC(=O)c1ccc(N2CCOCC2)c([N+](=O)[O-])c1`, for which the “hERG current change (%, negative = inhibition) at 10uM” value came to 3.76%.

Turning to `O=C(c1ccc(C(F)(F)F)cc1)N1CCN(c2ccc(N3CCOCC3)nn2)CC1`, the “hERG current change (%, negative = inhibition) at 10uM” value is recorded as -67.9%.

Regarding `COCCCN(C(=S)NC(=O)c1ccc(C(C)(C)C)cc1)c1c(N)n(Cc2ccccc2)c(=O)[nH]c1=O`, the “hERG current change (%, negative = inhibition) at 10uM” value came to 8.35%.

Consider `Cc1cccn2c(=O)c3cc(C(=O)NC4CCS(=O)(=O)C4)n(Cc4ccccc4)c3nc12` (centres unmarked), for which the “hERG current change (%, negative = inhibition) at 10uM” value was -4.36%.

On to `COCCNC(=O)C1CCC(Cn2c(=S)[nH]c3ccccc3c2=O)CC1` (centres unmarked), for which the “hERG current change (%, negative = inhibition) at 10uM” value is 0.963%.

Regarding `O=C(O)/C=C/C(=O)Nc1ccc(N2CCOCC2)nc1N1CCOCC1`, the “hERG current change (%, negative = inhibition) at 10uM” value stood at 10.5%.

Take `Cc1cccc(C)c1NCc1n[nH]c(=S)n1-c1ccccc1`: the “hERG current change (%, negative = inhibition) at 10uM” value was 17%.

With `CCc1ccc2oc(C(=O)NC3CCS(=O)(=O)C3)cc(=O)c2c1` (centres unmarked), the “hERG current change (%, negative = inhibition) at 10uM” value is -4.81%.

`CC[N+](CC)(CC)CC(=O)Nc1ccc(SC(F)F)cc1.[Cl-]`: the “hERG current change (%, negative = inhibition) at 10uM” value is given as -3.41%.

Turning to `COc1ccc2nc(C)cc(Nc3ccc(C(=O)O)cc3)c2c1`, the “hERG current change (%, negative = inhibition) at 10uM” value stood at 39.5%.

In the case of `COc1ccc(C(=O)C2CCN(C(=O)Nc3ccc(C)cc3)CC2)cc1`, the “hERG current change (%, negative = inhibition) at 10uM” value is listed as -9.82%.
